# According to the supplement of paper PMC8728848:
# The list shows a part of the results.
# Columns and labels:
# Assay in all cases: glycan array binding signal (z-score within array); higher = stronger binding
# Details in all cases: glycan notation: IUPAC condensed, linker removed
# [1] = molecular target: Gal(b1-3)[Fuc(a1-4)]GlcNAc(b1-3)Gal(b1-4)[Fuc(a1-3)]GlcNAc
# Outline: (§1)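 The Consortium for Functional Glycomics database supplied 3228 glycan arrays, of which those lacking an available protein sequence were dropped. The binding signal, a within-array Z-score, was averaged across arrays of the same protein sequence and across linkers. Negative scores can be read as non-binding.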
# [2] = molecular target: Gal(b1-3)[GlcNAc(b1-6)]GalNAc
# Outline: as §1
# [3] = molecular target: Gal(b1-3)[Neu5Ac(a2-6)]GalNAc
# Outline: as §1
# [4] = molecular target: Gal(b1-3)[Neu5Ac(a2-6)]GlcNAc(b1-6)Gal(b1-4)Glc
# Outline: as §1
# [5] = molecular target: Gal(b1-3)[Neu5Ac(b2-6)]GalNAc
# Outline: as §1
# [6] = molecular target: Gal(b1-4)GalNAc(a1-3)[Fuc(a1-2)]Gal(b1-4)GlcNAc
# Outline: as §1
# [7] = molecular target: Gal(b1-4)GalNAc(b1-3)[Fuc(a1-2)]Gal(b1-4)GlcNAc
# Outline: as §1
# Gal(b1-4)Glc = molecular target: Gal(b1-4)Glc
# Outline: as §1
# Gal(b1-4)Glc6S = molecular target: Gal(b1-4)Glc6S
# Outline: as §1
# Gal(b1-4)GlcNAc = molecular target: Gal(b1-4)GlcNAc
# Outline: as §1
# [8] = molecular target: Gal(b1-4)GlcNAc(b1-2)Man(a1-3)[Gal(b1-4)GlcNAc(b1-2)Man(a1-6)]Man(b1-4)GlcNAc(b1-4)GlcNAc
# Outline: as §1
# [9] = molecular target: Gal(b1-4)GlcNAc(b1-3)Gal(b1-4)Glc
# Outline: as §1
# [10] = molecular target: Gal(b1-4)GlcNAc(b1-3)Gal(b1-4)GlcNAc
# Outline: as §1
# [11] = molecular target: Gal(b1-4)GlcNAc(b1-3)Gal(b1-4)GlcNAc(b1-3)Gal(b1-4)GlcNAc
# Outline: as §1
# [12] = molecular target: Gal(b1-4)GlcNAc(b1-3)Gal(b1-4)[Fuc(a1-3)]GlcNAc(b1-3)Gal(b1-4)[Fuc(a1-3)]GlcNAc
# Outline: as §1
# [13] = molecular target: Gal(b1-4)GlcNAc(b1-3)GalNAc
# Outline: as §1
# [14] = molecular target: Gal(b1-4)GlcNAc(b1-3)[Gal(b1-4)GlcNAc(b1-6)]GalNAc
# Outline: as §1
# [15] = molecular target: Gal(b1-4)GlcNAc(b1-6)Gal(b1-4)GlcNAc(b1-6)GalNAc
# Outline: as §1
# [16] = molecular target: Gal(b1-4)GlcNAc(b1-6)GalNAc
# Outline: as §1
# [17] = molecular target: Gal(b1-4)GlcNAc(b1-6)[Gal(b1-3)]GalNAc
# Outline: as §1
# Gal3S(b1-3)GalNAc = molecular target: Gal3S(b1-3)GalNAc
# Outline: as §1
# Gal3S(b1-3)GlcNAc = molecular target: Gal3S(b1-3)GlcNAc
# Outline: as §1
# [18] = molecular target: Gal3S(b1-3)[Fuc(a1-4)]GlcNAc
# Outline: as §1
# Gal3S(b1-4)Glc = molecular target: Gal3S(b1-4)Glc
# Outline: as §1
# Gal3S(b1-4)Glc6S = molecular target: Gal3S(b1-4)Glc6S
# Outline: as §1
# Gal3S(b1-4)GlcNAc = molecular target: Gal3S(b1-4)GlcNAc
# Outline: as §1
# Gal3S(b1-4)GlcNAc6S = molecular target: Gal3S(b1-4)GlcNAc6S
# Outline: as §1
# Gal3S6S(b1-4)GlcNAc = molecular target: Gal3S6S(b1-4)GlcNAc
# Outline: as §1
# Gal3S6S(b1-4)GlcNAc6S = molecular target: Gal3S6S(b1-4)GlcNAc6S
# Outline: as §1
# Gal4S(b1-4)GlcNAc = molecular target: Gal4S(b1-4)GlcNAc
# Outline: as §1
# Gal4S6S(b1-4)GlcNAc = molecular target: Gal4S6S(b1-4)GlcNAc
# Outline: as §1
# Gal6S(b1-4)Glc = molecular target: Gal6S(b1-4)Glc
# Outline: as §1
# Gal6S(b1-4)Glc6S = molecular target: Gal6S(b1-4)Glc6S
# Outline: as §1
# Gal6S(b1-4)GlcNAc = molecular target: Gal6S(b1-4)GlcNAc
# Outline: as §1
# GalNAc(a1-3)Gal = molecular target: GalNAc(a1-3)Gal
# Outline: as §1
# GalNAc(a1-3)GalNAc = molecular target: GalNAc(a1-3)GalNAc
# Outline: as §1
# [19] = molecular target: GalNAc(b1-3)Gal(a1-4)Gal(b1-4)GlcNAc
# Outline: as §1
# GalNAc(b1-3)GalNAc = molecular target: GalNAc(b1-3)GalNAc
# Outline: as §1
# GalNAc(b1-4)GlcNAc = molecular target: GalNAc(b1-4)GlcNAc
# Outline: as §1
# Glc(a1-4)Glc = molecular target: Glc(a1-4)Glc
# Outline: as §1
# Glc(a1-6)Glc(a1-6)Glc = molecular target: Glc(a1-6)Glc(a1-6)Glc
# Outline: as §1
# Glc(b1-4)Glc = molecular target: Glc(b1-4)Glc
# Outline: as §1
# Glc(b1-6)Glc = molecular target: Glc(b1-6)Glc
# Outline: as §1
# GlcA(b1-3)Gal = molecular target: GlcA(b1-3)Gal
# Outline: as §1
# GlcA(b1-6)Gal = molecular target: GlcA(b1-6)Gal
# Outline: as §1
# [20] = molecular target: GlcNAc(a1-3)Gal(b1-4)GlcNAc
# Outline: as §1
# [21] = molecular target: GlcNAc(a1-6)Gal(b1-4)GlcNAc
# Outline: as §1
# [22] = molecular target: GlcNAc(b1-2)Gal(b1-3)GalNAc
# Outline: as §1
# [23] = molecular target: GlcNAc(b1-2)Man(a1-3)[GlcNAc(b1-2)Man(a1-6)]Man(b1-4)GlcNAc(b1-4)GlcNAc
# Outline: as §1
# GlcNAc(b1-3)Gal = molecular target: GlcNAc(b1-3)Gal
# Outline: as §1
# [24] = molecular target: GlcNAc(b1-3)Gal(b1-3)GalNAc
# Outline: as §1
# GlcNAc(b1-3)Gal(b1-4)Glc = molecular target: GlcNAc(b1-3)Gal(b1-4)Glc
# Outline: as §1
# [25] = molecular target: GlcNAc(b1-3)Gal(b1-4)GlcNAc
# Outline: as §1
# [26] = molecular target: GlcNAc(b1-3)Gal(b1-4)GlcNAc(b1-3)Gal(b1-4)GlcNAc
# Outline: as §1
# GlcNAc(b1-3)GalNAc = molecular target: GlcNAc(b1-3)GalNAc
# Outline: as §1
# [27] = molecular target: GlcNAc(b1-3)[GlcNAc(b1-6)]Gal(b1-4)GlcNAc
# Outline: as §1
# [28] = molecular target: GlcNAc(b1-3)[GlcNAc(b1-6)]GalNAc
# Outline: as §1
# [29] = molecular target: GlcNAc(b1-3)[GlcNAc(b1-6)]GlcNAc(b1-4)GlcNAc
# Outline: as §1
# [30] = molecular target: GlcNAc(b1-4)Gal(b1-4)GlcNAc
# Outline: as §1
# [31] = molecular target: GlcNAc(b1-4)GlcNAc(b1-4)GlcNAc
# Outline: as §1
# [32] = molecular target: GlcNAc(b1-4)GlcNAc(b1-4)GlcNAc(b1-4)GlcNAc(b1-4)GlcNAc
# Outline: as §1
# [33] = molecular target: GlcNAc(b1-4)GlcNAc(b1-4)GlcNAc(b1-4)GlcNAc(b1-4)GlcNAc(b1-4)GlcNAc
# Outline: as §1
# [34] = molecular target: GlcNAc(b1-4)[GlcNAc(b1-6)]GalNAc
# Outline: as §1
# [35] = molecular target: GlcNAc(b1-6)Gal(b1-4)GlcNAc
# Outline: as §1
# GlcNAc(b1-6)GalNAc = molecular target: GlcNAc(b1-6)GalNAc
# Outline: as §1
# Kdn(a2-3)Gal(b1-3)GlcNAc = molecular target: Kdn(a2-3)Gal(b1-3)GlcNAc
# Outline: as §1
# Kdn(a2-3)Gal(b1-4)GlcNAc = molecular target: Kdn(a2-3)Gal(b1-4)GlcNAc
# Outline: as §1
binder,measurement,setting,value
CV-IIL (Chromobacterium violaceum) (protein) AQQGVFTLPARINFGVTVLVNSAATQHVEIFVDNEPRAAFSGVGTGDNNLGTKVINSGSGNVRVQITANGRQSDLVSSQLVLANKLNLAVVGSEDGTDMDYNDSIVILNWPLG,glycan array binding signal (z-score),[1],1.75
same,glycan array binding signal (z-score),[2],-0.501
same,glycan array binding signal (z-score),[3],-0.496
same,glycan array binding signal (z-score),[4],-0.498
same,glycan array binding signal (z-score),[5],-0.502
same,glycan array binding signal (z-score),[6],-0.427
same,glycan array binding signal (z-score),[7],-0.46
same,glycan array binding signal (z-score),Gal(b1-4)Glc,-0.498
same,glycan array binding signal (z-score),Gal(b1-4)Glc6S,-0.5
same,glycan array binding signal (z-score),Gal(b1-4)GlcNAc,-0.501
same,glycan array binding signal (z-score),[8],-0.477
same,glycan array binding signal (z-score),[9],-0.467
same,glycan array binding signal (z-score),[10],-0.502
same,glycan array binding signal (z-score),[11],-0.479
same,glycan array binding signal (z-score),[12],-0.136
same,glycan array binding signal (z-score),[13],-0.502
same,glycan array binding signal (z-score),[14],-0.502
same,glycan array binding signal (z-score),[15],-0.502
same,glycan array binding signal (z-score),[16],-0.501
same,glycan array binding signal (z-score),[17],-0.502
same,glycan array binding signal (z-score),Gal3S(b1-3)GalNAc,-0.502
same,glycan array binding signal (z-score),Gal3S(b1-3)GlcNAc,-0.5
same,glycan array binding signal (z-score),[18],2.18
same,glycan array binding signal (z-score),Gal3S(b1-4)Glc,-0.495
same,glycan array binding signal (z-score),Gal3S(b1-4)Glc6S,-0.5
same,glycan array binding signal (z-score),Gal3S(b1-4)GlcNAc,-0.501
same,glycan array binding signal (z-score),Gal3S(b1-4)GlcNAc6S,-0.499
same,glycan array binding signal (z-score),Gal3S6S(b1-4)GlcNAc,-0.491
same,glycan array binding signal (z-score),Gal3S6S(b1-4)GlcNAc6S,-0.501
same,glycan array binding signal (z-score),Gal4S(b1-4)GlcNAc,-0.501
same,glycan array binding signal (z-score),Gal4S6S(b1-4)GlcNAc,-0.502
same,glycan array binding signal (z-score),Gal6S(b1-4)Glc,-0.501
same,glycan array binding signal (z-score),Gal6S(b1-4)Glc6S,-0.499
same,glycan array binding signal (z-score),Gal6S(b1-4)GlcNAc,-0.502
same,glycan array binding signal (z-score),GalNAc(a1-3)Gal,-0.502
same,glycan array binding signal (z-score),GalNAc(a1-3)GalNAc,-0.501
same,glycan array binding signal (z-score),[19],-0.501
same,glycan array binding signal (z-score),GalNAc(b1-3)GalNAc,-0.501
same,glycan array binding signal (z-score),GalNAc(b1-4)GlcNAc,-0.493
same,glycan array binding signal (z-score),Glc(a1-4)Glc,-0.49
same,glycan array binding signal (z-score),Glc(a1-6)Glc(a1-6)Glc,-0.493
same,glycan array binding signal (z-score),Glc(b1-4)Glc,-0.483
same,glycan array binding signal (z-score),Glc(b1-6)Glc,-0.498
same,glycan array binding signal (z-score),GlcA(b1-3)Gal,-0.499
same,glycan array binding signal (z-score),GlcA(b1-6)Gal,-0.486
same,glycan array binding signal (z-score),[20],-0.502
same,glycan array binding signal (z-score),[21],-0.501
same,glycan array binding signal (z-score),[22],-0.502
same,glycan array binding signal (z-score),[23],-0.463
same,glycan array binding signal (z-score),GlcNAc(b1-3)Gal,-0.494
same,glycan array binding signal (z-score),[24],-0.501
same,glycan array binding signal (z-score),GlcNAc(b1-3)Gal(b1-4)Glc,-0.502
same,glycan array binding signal (z-score),[25],-0.5
same,glycan array binding signal (z-score),[26],-0.501
same,glycan array binding signal (z-score),GlcNAc(b1-3)GalNAc,-0.501
same,glycan array binding signal (z-score),[27],-0.502
same,glycan array binding signal (z-score),[28],-0.502
same,glycan array binding signal (z-score),[29],-0.501
same,glycan array binding signal (z-score),[30],-0.502
same,glycan array binding signal (z-score),[31],-0.501
same,glycan array binding signal (z-score),[32],-0.501
same,glycan array binding signal (z-score),[33],-0.501
same,glycan array binding signal (z-score),[34],-0.502
same,glycan array binding signal (z-score),[35],-0.501
same,glycan array binding signal (z-score),GlcNAc(b1-6)GalNAc,-0.5
same,glycan array binding signal (z-score),Kdn(a2-3)Gal(b1-3)GlcNAc,-0.502
same,glycan array binding signal (z-score),Kdn(a2-3)Gal(b1-4)GlcNAc,-0.502
